Source: the supplement of paper PMC4604168 (melanoma cell lines)
This is one part of the list. Single values are uncertain, as repeats are few or missing.

Legend:
Test in all cases: cell count relative to DMSO control; melanoma cells; higher = more viable cells
Conditions in all cases: library dose: standard library concentration; 72 h
SkMel28 = tested on: SkMel28
SkMel2 = tested on: SkMel2
SkMel30 = tested on: SkMel30
SkMel5 = tested on: SkMel5
UACC257 = tested on: UACC257
UACC62 = tested on: UACC62
WM115 = tested on: WM115
WM1716 = tested on: WM1716
WM1745 = tested on: WM1745
WM3526 = tested on: WM3526
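Further: cells treated in 1,536-well plates, then fixed and DAPI-stained, with nuclei counted from automated high-throughput microscope images.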

Row | Compound | cell count (SkMel28) | cell count (SkMel2) | cell count (SkMel30) | cell count (SkMel5) | cell count (UACC257) | cell count (UACC62) | cell count (WM115) | cell count (WM1716) | cell count (WM1745) | cell count (WM3526)
1 | CC(C)(C)c1cnc(CSc2cnc(NC(=O)C3CCNCC3)s2)o1 + CC(C)CCN1c2nc(Nc3cc(F)c(O)c(F)c3)ncc2N(C)C(=O)C1C [BID1870] (first compound 0.05 µM, partner dose 1 µM) | 30.4% | 66.1% | 74.2% | 59.9% | 77.9% | 62.6% | 92.7% | 77.3% | 96.8% | 56.3%
2 | CCCCCCCCc1ccc(CCC(N)(CO)CO)cc1 [fingolimod] + O=C(Nc1cccc(Cl)c1)Nc1ncc(CCNc2ncnc3ccsc23)s1 [SNS314] (first compound 10 µM, partner dose 0.004 µM) | 0.252% | 0.297% | 7.58% | 40.7% | 53.9% | 21.8% | 12% | 37.5% | 2.14% | 21.4%
3 | CC(C)(C)c1cnc(CSc2cnc(NC(=O)C3CCNCC3)s2)o1 + CCCCCCCCCCCC1=C(O)C(=O)C=C(O)C1=O [Embelin] (first compound 0.05 µM, partner dose 6 µM) | 53.1% | 61.9% | 85.2% | 65.9% | 86.9% | 59.3% | 76.4% | 79.9% | 69.1% | 96.7%
4 | NC(=O)c1ccc(N(C(N)=O)c2c(F)cccc2F)nc1-c1ccc(F)cc1F + Cn1cc(/C=C2\C(=O)Nc3cccnc32)c2ccccc21 [GW441756] (first compound 2 µM, partner dose 2 µM) | 85.1% | 89.9% | 86.2% | 62.7% | 95.2% | 98.1% | 82.7% | 119% | – | 105%
5 | NC(=O)c1ccc(N(C(N)=O)c2c(F)cccc2F)nc1-c1ccc(F)cc1F + c1cc(-c2cnn3cc(-c4ccc(OCCN5CCCCC5)cc4)cnc23)ccn1 [Dorsomorphin] (first compound 2 µM, partner dose 2 µM) | 62.8% | 99.1% | 95% | 56.4% | 97.6% | 72.7% | 98.4% | 82.1% | – | 94.4%
6 | CC(C)(C)c1cnc(CSc2cnc(NC(=O)C3CCNCC3)s2)o1 + NCC(=O)Nc1ccc(-n2nc(C(F)(F)F)cc2-c2ccc3c(ccc4ccccc43)c2)cc1 [OSU03012] (first compound 0.05 µM, partner dose 5 µM) | 19.6% | 44.2% | 37% | 45.7% | 58.1% | 36.6% | 80.7% | 80.2% | 70.6% | 55.6%
7 | Cc1ccc(NC(=O)c2cccc(N(C)C)c2)cc1NC(=O)c1ccc(O)cc1 + CN(NC(=O)CC(=O)NN(C)C(=S)c1ccccc1)C(=S)c1ccccc1 [STA4783] (first compound 10 µM, partner dose 0.03 µM) | 16.8% | 30.9% | 78.5% | 28.2% | 94.3% | 23.5% | 17.8% | 60.3% | 27.1% | 71.1%
8 | NC(=O)c1ccc(N(C(N)=O)c2c(F)cccc2F)nc1-c1ccc(F)cc1F + Cn1c(=O)n(-c2ccc(C(C)(C)C#N)cc2)c2c3cc(-c4cnc5ccccc5c4)ccc3ncc21 [NVP-BEZ235] (first compound 2 µM, partner dose 0.02 µM) | 41.6% | 75% | 66.3% | 54.3% | 99.5% | 53.5% | 76.6% | 74.2% | 80.6% | 69%
9 | Cc1ccc(NC(=O)c2cccc(N(C)C)c2)cc1NC(=O)c1ccc(O)cc1 + Cc1cc([N+](=O)[O-])ccc1NS(=O)(=O)c1cc(Cl)ccc1Cl [FH535] (first compound 10 µM, partner dose 5 µM) | 74.1% | 80.1% | 84.2% | 76.5% | 54.4% | 90.5% | 75.1% | 87.4% | 83.8% | 85.2%
10 | CCCCCCCCc1ccc(CCC(N)(CO)CO)cc1 [fingolimod] + CCN(CC)CCCCNc1ncc2cc(-c3cc(OC)cc(OC)c3)c(NC(=O)NC(C)(C)C)nc2n1 [PD173074] (first compound 10 µM, partner dose 0.5 µM) | 34.6% | 28.2% | 40.3% | 98.3% | 85.7% | 43.2% | 24% | 45.8% | – | 61.5%
11 | NC(=O)c1ccc(N(C(N)=O)c2c(F)cccc2F)nc1-c1ccc(F)cc1F + N#Cc1c(O)c2c(-c3ccc(-c4ccccc4O)cc3)csc2[nH]c1=O [A769662] (first compound 2 µM, partner dose 10 µM) | 87.2% | 105% | 105% | 66.3% | 103% | 73.4% | 94.9% | 113% | – | 112%
12 | CCCCCCCCc1ccc(CCC(N)(CO)CO)cc1 [fingolimod] + CCCS(=O)(=O)Nc1ccc(F)c(C(=O)c2c[nH]c3ncc(Cl)cc23)c1F [PLX4720] (first compound 10 µM, partner dose 0.4 µM) | 0.616% | 0.407% | 9.57% | 35.9% | 78.5% | 18% | 6.18% | 61.1% | 2.44% | 21.9%
13 | NC(=O)c1ccc(N(C(N)=O)c2c(F)cccc2F)nc1-c1ccc(F)cc1F + O=C(O)C(=O)Nc1sc2c(c1C(=O)O)CCNC2 [TCS401] (first compound 2 µM, partner dose 8.33333 µM) | 94.1% | 85.1% | 86.9% | 79.5% | 89.1% | 101% | 95.9% | 93.3% | – | 88.7%
14 | Cc1ccc(NC(=O)c2cccc(N(C)C)c2)cc1NC(=O)c1ccc(O)cc1 + O=C(O)C(=O)Nc1sc2c(c1C(=O)O)CCNC2 [TCS401] (first compound 10 µM, partner dose 8.33333 µM) | 96.8% | 104% | 121% | 79.5% | 103% | 96% | 87.4% | 102% | 65.8% | 71.9%
15 | CCCCCCCCc1ccc(CCC(N)(CO)CO)cc1 [fingolimod] + COc1ccc2c(c1)CCC1C2CCC2(C)C(NCCCCCCN3C(=O)C=CC3=O)CCC12 [U73122] (first compound 10 µM, partner dose 2 µM) | 1.21% | 49.3% | 14.9% | 49.3% | 61.8% | 21.3% | 28.3% | 47.3% | – | 30.6%
16 | NC(=O)c1ccc(N(C(N)=O)c2c(F)cccc2F)nc1-c1ccc(F)cc1F + COC(=O)c1sccc1S(=O)(=O)Nc1ccc(Nc2ccccc2)cc1OC [GSK0660] (first compound 2 µM, partner dose 5 µM) | 86.2% | 89.9% | 108% | 75.7% | 96.1% | 72.4% | 105% | 114% | – | 85%
17 | CCCCCCCCc1ccc(CCC(N)(CO)CO)cc1 [fingolimod] + C#Cc1cccc(Nc2ncnc3cc(OCCOC)c(OCCOC)cc23)c1 [erlotinib] (first compound 10 µM, partner dose 4 µM) | 0.541% | 0.452% | 9.46% | 42.7% | 66.2% | 5.41% | 13.8% | 58.3% | 8.33% | 26.2%
18 | NC(=O)c1ccc(N(C(N)=O)c2c(F)cccc2F)nc1-c1ccc(F)cc1F + Cc1cc([N+](=O)[O-])ccc1NS(=O)(=O)c1cc(Cl)ccc1Cl [FH535] (first compound 2 µM, partner dose 5 µM) | 62.8% | 87.3% | 79.8% | 70.1% | 71.1% | 77.9% | 98.9% | 81.7% | – | 78.5%
19 | NC(=O)c1ccc(N(C(N)=O)c2c(F)cccc2F)nc1-c1ccc(F)cc1F + COc1ccc(COc2ccc(Cc3cnc(N)nc3N)cc2OC)cc1 [GW2580] (first compound 2 µM, partner dose 5 µM) | 85.9% | 103% | 112% | 91.4% | 91.1% | 90.7% | 99.9% | 104% | – | 80.3%
20 | NC(=O)c1ccc(N(C(N)=O)c2c(F)cccc2F)nc1-c1ccc(F)cc1F + COc1ccc(-c2ccc3c(N4CCOCC4)nc(N4C[C@@H](C)O[C@@H](C)C4)nc3n2)cc1CO [KU0063794] (first compound 2 µM, partner dose 0.1 µM) | 76.9% | 95.2% | 92.3% | 75.4% | 88.5% | 83.5% | 86.5% | 94% | – | 79.2%
21 | NC(=O)c1ccc(N(C(N)=O)c2c(F)cccc2F)nc1-c1ccc(F)cc1F + CCCCCCCCCCCC1=C(O)C(=O)C=C(O)C1=O [Embelin] (first compound 2 µM, partner dose 6 µM) | 94.8% | 93.7% | 92% | 79% | 97.4% | 109% | 94.6% | 67.5% | – | 98.5%
22 | NC(=O)c1ccc(N(C(N)=O)c2c(F)cccc2F)nc1-c1ccc(F)cc1F + COc1cc2ncnc(Nc3ccc(Oc4ccccc4)cc3)c2cc1OC [SrcI1] (first compound 2 µM, partner dose 10 µM) | 48.4% | 79.3% | 105% | 61.9% | 88.6% | 60.8% | 77.4% | 75.8% | – | 66.3%
23 | NC(=O)c1ccc(N(C(N)=O)c2c(F)cccc2F)nc1-c1ccc(F)cc1F + O=C(O)c1ccc(-c2c[nH]c3ncc(-c4ccccc4)cc23)cc1C1CCCC1 [GSK650394] (first compound 2 µM, partner dose 0.8 µM) | 77.8% | 81% | 99.1% | 83% | 87.2% | 109% | 92.8% | 101% | 103% | 84.7%
24 | CCc1ccc(CCOc2ccc(CC3SC(=O)NC3=O)cc2)nc1 (stereo not drawn) [pioglitazone] + COc1ccc(-c2ccc3c(N4CCOCC4)nc(N4C[C@@H](C)O[C@@H](C)C4)nc3n2)cc1CO [KU0063794] (first compound 10 µM, partner dose 0.1 µM) | 53.3% | 96.3% | 86.7% | 71.1% | 87.4% | 101% | 96.4% | 120% | 85.7% | 78%
